According to PubChem BioAssay AID1159614 (National Center for Advancing Translational Sciences (NCATS), 2016):
Hit rate of the full screen: of about 45,000 compounds, about 65 (0.1%) were called active. Calls come from the whole dose curve; as a rule, active = well fitted activation curve with a large enough effect; inconclusive = small, poorly fitted or top-dose-only effect; inactive = no such curve, though single readings can be large or run the other way. This is one part of the list.

biological target: Galactocerebrosidase (Homo sapiens) (UniProt P54803); assay: A Novel Cell-Based Assay to Identify Small Molecules for B -Galactocerebrosidase; settings: 145M-Twi-hGALC-G270D cells (Twitcher mouse brain line with human GALC G270D), HMU-beta-Gal fluorescence, 48 h; series mostly up to 57.5 µM; activation: at the top concentration; note: 0% is about no effect; nearly all actives have a fitted effect of over 65% in size
Chain of UniProt P54803 (P54803 whole entry, looked up): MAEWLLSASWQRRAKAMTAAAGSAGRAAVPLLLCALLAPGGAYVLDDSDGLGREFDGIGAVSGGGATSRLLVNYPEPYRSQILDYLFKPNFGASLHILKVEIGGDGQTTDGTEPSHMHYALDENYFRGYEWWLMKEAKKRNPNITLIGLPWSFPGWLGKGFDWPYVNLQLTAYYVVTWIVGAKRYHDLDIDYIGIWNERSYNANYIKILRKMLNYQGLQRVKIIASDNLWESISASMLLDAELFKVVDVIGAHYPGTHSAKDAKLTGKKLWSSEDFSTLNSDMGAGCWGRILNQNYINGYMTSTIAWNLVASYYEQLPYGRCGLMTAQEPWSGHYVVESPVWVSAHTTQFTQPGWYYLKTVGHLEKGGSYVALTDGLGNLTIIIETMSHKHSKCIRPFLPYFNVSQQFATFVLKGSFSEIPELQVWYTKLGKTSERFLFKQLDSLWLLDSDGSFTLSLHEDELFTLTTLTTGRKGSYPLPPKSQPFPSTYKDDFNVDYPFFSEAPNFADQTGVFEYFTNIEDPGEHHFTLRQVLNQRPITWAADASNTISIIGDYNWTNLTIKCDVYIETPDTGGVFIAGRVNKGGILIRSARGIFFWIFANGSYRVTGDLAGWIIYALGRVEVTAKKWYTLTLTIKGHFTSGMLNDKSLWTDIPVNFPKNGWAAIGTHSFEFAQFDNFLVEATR
Procedure, shortened: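 Live 145M-Twi cells (Twitcher mouse brain-derived, GALC-null) stably expressing human GALC-G270D, with a wild-type GALC line, were compound-treated. Residual GALC activity was then read as fluorescence from 0.1 mM final HMU-β-gal at pH 5.2; higher signal means activation.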

activation, inactive:
COc1ccc(CNC(=O)c2ccc3c(Cl)c4c(nc3c2)CCCC4)c(OC)c1 -35.9%
Cc1cc(-c2ccccc2)nc2cc(C(=O)Nc3cc(C(F)(F)F)ccc3Cl)nn12 -11.2%
CCN(Cc1ccccc1)Cc1c(O)ccc2c(=O)c(-c3ccccc3Cl)coc12 5.36%
CCn1cc(C(=O)NCCCOC(C)C)c(=O)c2cc(S(=O)(=O)N(C)C3CCCCC3)ccc21 -11.7%
CN(Cc1ccccc1)S(=O)(=O)c1ccc(F)c(C(=O)Nc2cc(Cl)cc(Cl)c2)c1 -8.31%
O=C(Nc1cc(-c2nc3cc(Cl)ccc3o2)ccc1Cl)c1cc2ccccc2o1 -22.8%
O=C(NCc1ccccc1)c1ccc(Cn2c(=O)c3cccn3c3cccnc32)cc1 -6.03%
Cc1ccc(C)c(N2CCN(S(=O)(=O)c3ccc4c(c3)n(C)c(=O)c(=O)n4C)CC2)c1 -11.2%
CCOC(=O)c1c(-c2ccccc2)csc1NC(=O)c1cc(-c2cccc(Cl)c2)on1 -7.71%
COc1cc(OC)c(NC(=O)CSCc2nc(-c3ccc(OC)c(OC)c3)no2)cc1Cl -8.41%
CC(=O)c1cccc(NC(=O)c2ccc3c(c2)c(C)c(C)n3Cc2ccc(Cl)cc2)c1 5.11%
COc1ccccc1OCCn1c(NC(=O)c2ccccc2)nc2ccccc21 -26.8%
Cc1ccc(NC(=O)C2CCN(c3ncccn3)CC2)cc1F 0.778%
Cc1ccc(CCNC(=O)c2ccc(Cn3c(=O)c4cccn4c4cccnc43)cc2)cc1 -4.15%
Cc1ccc(-n2c(SCC(N)=O)nc3c(oc4ccccc43)c2=O)cc1 -17.2%
O=C(COc1cccc(Cl)c1)N1CCC(c2nc3ccccc3s2)CC1 -17%
CCn1c(CNC(=O)C23CC4CC(CC(C4)C2)C3)nnc1SCC(=O)Nc1ccc(OC)cc1 -12.7%
CCc1cc2cc(OC)c(OC)cc2c(Cc2ccccc2)n1 -12%
O=C(O)CNC(=O)CNC(=O)CNC(=O)CSC(=O)c1ccccc1 -8.71%
CC1(C)S[C@@H]2[C@H](N=CN3CCCCCC3)C(=O)N2[C@H]1C(=O)O -17.9%
COc1ccc(NC(=O)CSc2nc3ccccc3n2CC(=O)Nc2cccc(C)c2C)cc1 0.817%
CCOc1ccccc1NC(=O)C(C)n1nnc2sc3c(c2c1=O)CCCC3 (stereo unspecified) -10.9%
O=C(O)c1cccc(NC(=O)c2cccc(S(=O)(=O)Nc3cccc(F)c3)c2)c1 7.98%
Cc1ccc(Cl)cc1N1CCN(C(=O)c2cnn(-c3ccc(Cl)cc3)c2C2CCNCC2)CC1 -14.7%
N#Cc1c[nH]n2c(NC3CCCC3)c(-c3ccc(Br)cc3)nc12 -5.65%
COc1cccc(C(=O)Nc2ccccc2SCc2cc(=O)c3cccc(C)c3[nH]2)c1 -11.1%
